The values that follow come from the supplement of paper PMC12632987.

Whole data set: some 1,800 sequences, median “median log2 fold change of GCK-ALFA target abundance (FLAG IP / Myc IP barcode read proportion)” near 0.14, cut for the lowest 2% near -0.84. This is one part of the list.

Sequences and labels used below:
T1: TRAF2, Q12933
T1 chain: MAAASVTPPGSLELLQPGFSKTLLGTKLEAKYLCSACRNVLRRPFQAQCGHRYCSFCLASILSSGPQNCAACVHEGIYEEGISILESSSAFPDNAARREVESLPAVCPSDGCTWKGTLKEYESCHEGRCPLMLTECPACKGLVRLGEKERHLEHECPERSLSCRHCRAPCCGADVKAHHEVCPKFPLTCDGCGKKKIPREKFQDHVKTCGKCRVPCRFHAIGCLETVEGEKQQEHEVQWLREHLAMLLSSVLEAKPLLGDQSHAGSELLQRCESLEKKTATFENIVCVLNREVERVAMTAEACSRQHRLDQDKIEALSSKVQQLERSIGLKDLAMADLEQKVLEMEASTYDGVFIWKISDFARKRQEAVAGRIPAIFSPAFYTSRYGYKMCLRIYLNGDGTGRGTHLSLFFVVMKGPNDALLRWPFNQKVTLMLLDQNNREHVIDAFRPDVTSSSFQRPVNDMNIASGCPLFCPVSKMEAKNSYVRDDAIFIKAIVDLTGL

B1: traf2_out_9_108_2583 (protein)
chain: MSEEERLEATFEAVLALVEEFKATNALTPEQLESLDAAIEQAKRLREEGEKRTAIVLLAIDLARIASEVGDEATAALLERLAAIDPRAAAAAARMARLLK
B2: traf2_out_16_104_1426 (protein)
chain: EEEKEKRFEEIIKRYEEIAERANKIANELYKLMQKASPEEKTKLSDALVEASELRRKALEAAIEAEKAKKEGGDLKEMEKKLEELEKRLKELEKKAKELK
B3: traf2_out_9_108_2591 (protein)
chain: MTEEEKLDEIYEKVLALVEEALERFDFPEELREALDASIEQAKKLYENGEKRTAIILLAIDLVSISYELGDEVVEWVLERLEEIDEIAASAARRRYELLK
B4: traf2_out_20_3_2149 (protein)
chain: EELEKELEEELEEALKILKEAAKLADEETAKRLEELAKRLKKSRELSYSDRLVVVSEIRREVRLLQQEALAAGKEELAKLLEEAAEELNRAANLLMKIIE
B5: traf2_out_18_117_1768 (protein)
chain: SERQEVIAELEAIAEELARAASELGRAVLENWEKLTPEEKSEAMDVLADLSEVRRRALLLIQQIREQNLPLEEARAQLEALRVEAEAALARARARLERIR
B6: traf2_out_17_178_1723 (protein)
chain: SKEEYRKKISELTDELIDLSEEAAERLLALAEAEGRLSPEELAALREARRRGSPNDTLALMERAAPRLSSRAEAEALIEEFRRRSRELAKKIAEAYKKYE
B7: traf2_out_1_27_1023 (protein)
chain: SDEALTALIRRTDREIAAVGLEEAREVVREALREAAREGLGDARLVALTLIASQLDKERAEAIREAALEAFRELGAPQEVIDELARRADSIIARQEKVLA
B8: traf2_out_17_162_1545 (protein)
chain: GSLEEKLKKLEEELEKLRKKREELEKKLPELPKLSKEELTDLLVEASEARREARLLAEEIEELKKEIGEEKAKKLAEEARKIAEELQRIANEIYKELEKK
B9: traf2_out_20_3_2157 (protein)
chain: SELEKKAEEALKKAEKLLEEAAKLADPETAKKLKELKKKVEKSKELPYEDRLVVLSEVRREVLALAEAAAAAGKKELAEVLEKAAEALNKAMNLTYKIIE
B10: traf2_out_20_3_2142 (protein)
chain: EELEKKLKEALKAAEKTLKQAAKLADPATAARLDALIARLKASEKLSYEDRLVELSAIRREVLALAVEAEAAGRAELAALLNAAADELNKAMNLLMKIIE
B11: traf2_out_18_167_1884 (protein)
chain: KEELEKKRQEAVDKLVELSALRRALREILAALEESREAARAALDAALAAHPDSAILKEAKTVFETKSDEEFRAFLEAQAEALQKEANKAYQEILELEKEL
B12: traf2_out_16_171_1431 (protein)
chain: SAEEKEKALKEEIDKERDDIIERMETAVEVTPLISKETGLTVEQIAKGFRSTMDDRIEALKKKYEEAAKTASEEVKKYMKERLEEIEKAKEEALKKILEI
B13: traf2_out_3_89_2285 (protein)
chain: SPEREALIREARERARRYVRGFEKSLTFVAKEMVAEGHSLDTLRGVANAAKSAIVEEFRESLKERGLDEETIEELVEELERELDAVVDKILAAAAAARAA
B14: traf2_out_20_3_2081 (protein)
chain: EELKKQAEEARKEAIKILKEAAKLADEETAKKLKELIKKLKESEKLPLSDQLVVLSEVRRELLLLAQEAKAAGNEELAKKLEEAAEAVGRLANLVYKILQ
B15: traf2_out_20_3_2123 (protein)
chain: EELEKELEKEEEKAIKLLKEAAKISDPETAKKLKELIEKLKKSKELSPSDRLVVVSEIRREVRLLAEEAAKAGKKELAEILEKAADALNRAAQLLYEIEK
B16: traf2_out_9_17_2620 (protein)
chain: AAREAALREALLAVTDEILEELIERGLITEEEAEEIRRKVEEAIERGLSPEEVRALFLGSIASILLQPDGLSVKEAQEVVGAVYRRWRERLAAREAAAAA
B17: traf2_out_13_95_1216 (protein)
chain: SAEAKARLREISNRMLDEAEEIVEELAEKAAPFPETAPDMDRIRHALRNYGIRQAIALIREAAAAHPELRELFEEAAERLEELRRRAGREVARVLKEDAE
B18: traf2_out_11_169_793 (protein)
chain: EEAEKNRQINDFALALNDEAKEKLKKEALKLAKEAGLDVEEVKAIFEKNKNASLSYVASELIKYFKSKGKEEEAEAIEKKYEELKEEINKKATAHIKELE
B19: traf2_out_1_27_1020 (protein)
chain: SDAEFTALLRETQRQIAAVDAEEARKVVREAIREAHERGIGDPANLAVALYTSQMDPEMAEAILEAVLEAFRELGVPEEEIERVRRRMDSARARLEKLLA

The target in the assay is T1, TRAF2, Q12933. The assay can be described thus: median log2 fold change of GCK-ALFA target abundance (FLAG IP / Myc IP barcode read proportion) (log2 ratio); each designed protein is fused to an ALFA-tag nanobody in HEK293 cells to bring the named protein to FLAG-tagged glucokinase (GCK); Myc marks an untargeted standard; higher = target protein stabilised (more abundant). To be noted: target protein: 3xFLAG-MCP-GCK-ALFA reporter; HEK293 landing pad (RPLP). Here is the method:
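LABEL-seq trans screen in HEK293 landing-pad cells. Each de novo designed 100-aa effector handle, binding the indicated effector (E3 ligase, DUB or autophagy protein), is fused to a constant NbALFA target handle and induced with 2 ug/mL doxycycline. A FLAG-MCP-GCK-ALFA target and a Myc-MCP standard reporter were transfected, and after 48 h circRNA barcodes were recovered by anti-FLAG and anti-Myc IP and sequenced. The value is the median across barcodes (at least 3 per design) of log2(FLAG/Myc read-proportion ratio), with the two transfection replicates pooled. Negative values mean degradation and positive values mean stabilisation of the target.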
On to B1, for which the “median log2 fold change” value was -0.0764.
Take B2: the “median log2 fold change” value came out at 0.606.
Then B3, with -0.0587; and B4, with 0.0353; and B5, with 0.0268.
On to B6, for which the “median log2 fold change” value was found to be 0.389.
B7: the “median log2 fold change” value is 0.201.
In the case of B8, the “median log2 fold change” value is 0.35.
Turning to B9, the “median log2 fold change” value was found to be 0.34.
As for B10, the “median log2 fold change” value stood at 0.31.
The figure for B11 is 0.173; for B12 it is 0.175.
In the case of B13, the “median log2 fold change” value is -0.531.
Then B14, with 0.0612; and B15, with 0.267; and B16, with -0.683.
The figure for B17 is -0.484; for B18 it is 0.248; for B19 it is 0.14.
